Series [1] concerns human HT-29 colon, MDA-MB-231 breast, and OVCAR3 ovarian cancer, and MDA-MB-435 melanoma cells. Put plainly: Cytotoxicity toward all four cell lines tested. The note with it: HT-29, MDA-MB-231, OVCAR3, MDA-MB-435.
Series [2] has the same test system.

SMILES strings stand for the structures. Like-named read-outs stand apart in the source and are kept apart here.

As to `C[C@H]1O[C@@H](O[C@H]2[C@@H](O)C[C@H](O[C@H]3[C@@H](O)C[C@H](O[C@H]4CC[C@@]5(C)[C@H](CC[C@@H]6[C@@H]5C[C@@H](O)[C@]5(C)[C@H]([C@@H]7CC(=O)O[C@@H]7O)CC[C@]65O)C4)O[C@@H]3C)O[C@@H]2C)C[C@H](O)[C@@H]1O` [compound 7, (+)-17-epi-20,22-Dihydro-21α-hydroxydigoxin], the “cytotoxicity against all cell lines (in words)” value in series [1] is recorded as “no discernible activity”.

Consider `C[C@]12[C@H](O)CC3=C(CC[C@@H]4C[C@@H](O)CC[C@]34C)[C@H]1CC[C@@H]2C1=CC(=O)OC1` [compound 6, (+)-8(9)-β-Anhydrodigoxigenin], for which the “cytotoxicity against all cell lines (in words)” value in series [2] is given as “no discernible activity”.

These data come from article PMC7243443 (Journal of natural products, 2020).
